In all, about 280,000 compounds went through this assay and about 100 (0.036%) were called active. This list was built around the results that the source calls inconclusive (neither active nor inactive); the mix of calls is not that of the screen. Calls follow the shape of the dose curve; as a rule, active = well fitted inhibition curve with a large enough effect in the signal ratio, with a control signal flat (not every such curve was filed as active); inconclusive = small, poorly fitted or top-dose-only effect, or effect the other way, or a change in a side signal; inactive = no such curve, though single readings can be large or run the other way; the % refers to the signal ratio. Potencies beside an inconclusive call are fits to weak or partial responses and may not hold up. A note “side channel” means that the fit belongs to a control or component signal, not to the main read-out.
What follows are compounds tested against Muscleblind-like protein 1 (Homo sapiens) (UniProt Q9NR56) (assay: qHTS Assay for Inhibitors of MBNL1-poly(CUG) RNA binding). Conditions: TR-FRET MBNL1-His/biotin-(CUG)12 binding, 665/545 ratio; series mostly up to 57.5 µM.
Procedure, shortened: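 Inhibition of protein-RNA binding appears as loss of TR-FRET between terbium anti-His antibody on MBNL1-His and streptavidin-XL665 on biotin-(CUG)12. Activity is normalized to buffer-only and uninhibited-complex controls.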
Potency is read from the fitted curve at half-maximal effect; tags tell the direction and shape of the fitted curve or compound fluorescence and quenching.

Chain of UniProt Q9NR56 (Q9NR56 whole entry, looked up): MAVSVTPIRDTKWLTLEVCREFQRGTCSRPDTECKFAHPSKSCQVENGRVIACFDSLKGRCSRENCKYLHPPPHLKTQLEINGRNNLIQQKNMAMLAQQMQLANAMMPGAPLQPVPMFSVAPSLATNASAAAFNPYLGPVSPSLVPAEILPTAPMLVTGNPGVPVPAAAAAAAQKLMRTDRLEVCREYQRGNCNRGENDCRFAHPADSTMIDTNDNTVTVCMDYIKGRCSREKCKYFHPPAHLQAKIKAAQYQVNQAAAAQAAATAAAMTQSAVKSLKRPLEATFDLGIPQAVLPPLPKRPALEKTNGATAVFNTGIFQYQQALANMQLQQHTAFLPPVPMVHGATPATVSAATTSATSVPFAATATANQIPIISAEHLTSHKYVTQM

SMILES | Potency
Cc1ccc(Nc2nc(Cl)nc(NC3CCCCC3)n2)cc1 | inactive
CC(=O)Nc1ccc(S(=O)(=O)NC(CSc2ccc(C(=O)O)cc2[N+](=O)[O-])C(=O)O)cc1 (stereo not given) | inconclusive: 15.8 µM [quencher, side channel, partial curve]
CCOC(=O)c1[nH]c2ccc(C)cc2c1N | inconclusive: 5.62 µM [quencher, side channel, full curve, poor fit]
COc1ccc(CNC(=O)c2cc(-c3ccc(OC)c(OC)c3)on2)cc1 | inactive
CCOCc1cc(=O)[nH]c(SC)n1 | inconclusive: 0.224 µM [quencher, side channel, full curve]
Cc1ccc(-c2n[nH]c(=S)n2/N=C/c2sccc2C)cc1 | inactive
CN(C)CCCNC(=O)/C=C/c1ccc2c(c1)OCO2 | inconclusive: 25.1 µM [quencher, side channel, partial curve]
O=C1/C(=C\c2ccccc2)SC(=S)N1CCC(=O)N1CCCCC1CCO (stereo not given) | inconclusive: 12.6 µM [quencher, partial curve]
COc1ccc(CCNc2ncnc3c2oc2ccccc23)cc1OC | inactive
O=C(Cn1cnnn1)Nc1cccc([N+](=O)[O-])c1 | inconclusive: 31.6 µM [quencher, side channel, single point]
Cc1ccc2nc(N3CCN(S(=O)(=O)c4ccc5c(c4)OCCO5)CC3)c(C#N)cc2c1 | inconclusive: 28.2 µM [fluorescent, side channel, single point]
CN(C(=O)Nc1ccc(Cl)cc1)c1c2c(nn1C)CCCC2 | inactive
CC(=O)Nc1c2c3c(cccc3n(C)c1=O)C(=O)c1ccccc1-2 | inconclusive: 1.41 µM [quencher, side channel, full curve]
Cc1cc(NS(=O)(=O)c2ccc(NC(=O)COc3ccccc3C(C)(C)C)cc2)no1 | inactive
CC(=O)c1c(C)nc(-c2ccc(Cl)cc2)nc1N | inconclusive: 251 µM [inhibitor, partial curve]
CC(=O)C1=C(O)C(=O)N(c2cc(C(C)(C)C)on2)C1c1ccc(Br)cc1 (stereo not given) | inactive
CCCn1c(/C=C/c2cc[n+](C)cc2)nc2ccccc21 | inconclusive: 7.94 µM [quencher, side channel, partial curve]
Cc1cc(O)c(C(=O)/C=C/c2cccc([N+](=O)[O-])c2)c(=O)o1 | inconclusive: 28.2 µM [quencher, side channel, single point]
O=C(CSCc1ccc([N+](=O)[O-])cc1)N/N=C/c1ccncc1 | inconclusive: 22.4 µM [quencher, side channel, partial curve]
CCN(c1cccc(C)c1)S(=O)(=O)c1cn(CC(=O)OC)c2ccc([N+](=O)[O-])cc12 | inconclusive: 35.5 µM [quencher, side channel, single point]

SMILES | Potency
O=C(N/N=C1\CCS(=O)(=O)c2ccc(F)cc21)c1ccc(O)cc1 | inconclusive: 10 µM [quencher, side channel, partial curve]
CCCn1c(-c2cccs2)nc2nc3ccccc3nc21 | inconclusive: 12.6 µM [quencher, side channel, partial curve]
Cc1cc[n+]2c3c(cccc13)CCC2 | inconclusive: 28.2 µM [quencher, side channel, single point]
CCOc1ccccc1OCC(=O)Nc1ccc(Cl)cc1Cl | inactive
COc1ccc2cc(C(=O)CS(=O)(=O)c3ccccc3)c(=O)oc2c1 | inconclusive: 5.62 µM [quencher, side channel, full curve]
O=[n+]1cc(-c2ccccc2)n([O-])c2c1CCC2 | inconclusive: 17.8 µM [quencher, partial curve]
COc1ccccc1NC(=O)CSc1nnnn1-c1ccccc1F | inactive
O=C1C(Cl)=C(N2CCCC2)C(=O)N1c1ccccc1F | inconclusive: 25.1 µM [quencher, side channel, partial curve]
CCN(CCNC(=O)CN(C)S(=O)(=O)c1cccc2nsnc12)c1ccccc1 | inconclusive: 10 µM [quencher, partial curve]
COc1ccc(C(=O)NCCNc2nc3c(C)cccc3cc2C#N)cc1OC | inactive
C#CCOCCOCCOCCNc1nc(N2CCN(C(=O)[C@H](CCC(=O)O)n3cc(C(N)CC(C)C)nn3)CC2)nc(N2CCN(C(=O)[C@H](Cc3ccc(O)cc3)n3cc(C(N)CC(C)C)nn3)CC2)n1 (stereo not given in full) | inconclusive: 6.31 µM [inhibitor, full curve, poor fit]
CCOC(=O)c1cnc2ccc(C)cc2c1Nc1ccc(N2CCOCC2)cc1 | inconclusive: 25.1 µM [quencher, side channel, partial curve]
Cc1cc(-c2nc3ccccc3o2)c2ccccc2n1 | inconclusive: 14.1 µM [quencher, side channel, partial curve]
O=c1c(-c2c(O)cc(O)c3c(=O)cc(-c4ccc(O)cc4)oc23)c(-c2ccc(O)cc2)oc2cc(O)cc(O)c12 | inactive
CC1CN(c2ccc([N+](=O)[O-])c(NCCOc3ccccc3)c2)CCN1 (stereo not given) | inconclusive: 15.8 µM [quencher, side channel, partial curve]
O=C(Nc1ccc(SC(F)F)cc1)c1ccc2nccnc2c1 | inconclusive: 15.8 µM [quencher, side channel, partial curve]
CSc1nnc(C)c(/C=C/Nc2ccc(C)cc2)n1 | inconclusive: 20 µM [quencher, side channel, partial curve]
COc1ccc(NC(=O)CN2CCN(CC(=O)Nc3ccc(F)cc3)CC2)cc1Cl | inactive
Cc1cc(O)ccc1Nc1nc(-c2cccnc2)cs1 | inconclusive: 31.6 µM [quencher, side channel, single point]
O=[N+]([O-])c1cccc(S(=O)(=O)N2CCCCC2c2cccnc2)c1 (stereo not given) | inconclusive: 5.62 µM [quencher, side channel, partial curve]

SMILES | Potency
O=C(Nc1cccc2ncccc12)c1ccc([N+](=O)[O-])o1 | inconclusive: 7.94 µM [quencher, side channel, partial curve]
Cc1ccc(-c2cc(C(=O)NCCc3ccc(S(N)(=O)=O)cc3)c3ccccc3n2)cc1 | inactive
Brc1ccccc1C1=Nn2c(nnc2-c2ccccc2)SC1 | inconclusive: 6.31 µM [fluorescent, side channel, single point]
COc1ccc(C(=O)Nc2ncc(C)s2)cc1S(=O)(=O)N1CCCC1 | inconclusive: 39.8 µM [quencher, single point]
Cc1cc(OCC(=O)N[C@@H](Cc2ccccc2)c2nc3ccccc3[nH]2)ccc1Cl | inconclusive: 0.1 µM [fluorescent, side channel, full curve]
O=C(NCC(=O)N1CCc2ccccc2C1)c1ccccc1Cl | inconclusive: 0.708 µM [fluorescent, side channel, single point]
CC1(C)[N+]([O-])=C2C(=[N+]([O-])C1(C)C)c1ccccc1/C2=N\O | inconclusive: 14.1 µM [quencher, partial curve]
O=C(COC(=O)CNC(=O)c1cccc([N+](=O)[O-])c1)NCc1ccco1 | inconclusive: 14.1 µM [quencher, side channel, partial curve]
CCOc1cc2[nH]c(=S)n(CCCC(=O)NCc3ccco3)c(=O)c2cc1OCC | inactive
CCN1C(=O)/C(=C/c2cccs2)S/C1=N\S(=O)(=O)c1ccc(C)cc1 | inconclusive: 0.1 µM [fluorescent, side channel, full curve, poor fit]
O=[N+]([O-])c1ccc(CSc2ccccn2)cc1 | inconclusive: 11.2 µM [quencher, side channel, partial curve]
COc1ccccc1C(=O)NCCC(=O)NCC(c1ccccc1)N(C)C (stereo not given) | inconclusive: 4.47 µM [quencher, side channel, full curve, poor fit]
Cc1ccc([N+](=O)[O-])cc1S(=O)(=O)Nc1ccc(OCC(=O)N2CCOCC2)cc1 | inconclusive: 11.2 µM [quencher, side channel, partial curve]
COc1cccc(C=N[C@@H](CO)[C@@H](O)c2ccc([N+](=O)[O-])cc2)c1O | inconclusive: 20 µM [quencher, side channel, partial curve]
COc1cc(/C=N/NC(=O)C(NC(=O)c2ccccc2)c2n[nH]c(=O)c3ccccc23)ccc1OCC(N)=O (stereo not given) | inconclusive: 25.1 µM [quencher, side channel, single point]
Cc1c(C2C(C#N)=C(N)N(c3ccccc3C#N)C3=C2C(=O)CCC3)cnn1C (stereo not given) | inconclusive: 1.41 µM [quencher, side channel, partial curve]
CC(C)(C)NC(=O)Cn1cnc2cc([N+](=O)[O-])ccc2c1=O | inconclusive: 15.8 µM [quencher, side channel, partial curve]
O=C(COc1ccccc1[N+](=O)[O-])N/N=C/c1ccc(O)c([N+](=O)[O-])c1 | inconclusive: 14.1 µM [quencher, partial curve]
CC(Sc1nnc2c(n1)[nH]c1ccccc12)C(=O)NC1CCCCC1 (stereo not given) | inconclusive: 7.08 µM [quencher, side channel, full curve, poor fit]
O=C(Nc1ccc(F)cc1)c1ccc(CSc2ccccc2)o1 | inactive
